Data on 90 compounds can be found in PubChem BioAssay AID360 (National Center for Advancing Translational Sciences (NCATS), 2006).

About 550 (1.1%) of roughly 48,000 compounds were called active. About 4% were inconclusive and are not listed. No stated cut-off is given here; in the data, active means potency below about 15 µM; inconclusive means mostly about 16 µM to 33 µM; inactive means weaker than that. The list shows a part of the results.
Potency means the concentration at half of the fitted maximal effect.

Sequence of UniProt P04062 (P04062 whole entry, looked up): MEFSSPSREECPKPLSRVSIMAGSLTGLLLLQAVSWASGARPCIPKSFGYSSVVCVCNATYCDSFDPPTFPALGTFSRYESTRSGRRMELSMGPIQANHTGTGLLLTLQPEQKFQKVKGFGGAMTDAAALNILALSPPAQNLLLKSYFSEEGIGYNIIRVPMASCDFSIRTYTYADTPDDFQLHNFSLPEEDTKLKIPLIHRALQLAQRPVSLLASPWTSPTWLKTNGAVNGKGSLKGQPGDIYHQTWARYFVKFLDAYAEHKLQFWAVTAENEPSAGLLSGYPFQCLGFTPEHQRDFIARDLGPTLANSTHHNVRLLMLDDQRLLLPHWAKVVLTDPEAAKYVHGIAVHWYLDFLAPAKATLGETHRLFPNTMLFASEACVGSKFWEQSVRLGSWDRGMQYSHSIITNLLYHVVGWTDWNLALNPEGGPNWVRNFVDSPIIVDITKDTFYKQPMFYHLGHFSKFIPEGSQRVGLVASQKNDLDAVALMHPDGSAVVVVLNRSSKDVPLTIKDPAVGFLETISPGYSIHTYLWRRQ

The assay has as its target Lysosomal acid glucosylceramidase (Homo sapiens) (UniProt P04062). Nature of the assay: Glucocerebrosidase.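 Further: the screen sought inhibitors.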 To be noted: purified enzyme, resorufin glucoside fluorescence (screen aimed at inhibitors), 20 min. The essentials:
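Wild-type enzyme at 0.2 nM final in 50mM citric acid/KH2PO4, 10mM sodium taurocholate, 0.01% tween-20, pH 5.9, with resorufin beta-D-glucopyranoside at 30 uM final. Compounds titrated, 20 min at RT, red fluorescence read; AC50 from titration.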
As for `CCOC(=O)C1=C(C)N(c2ccccc2)C(=O)C1CC(=O)O` (stereo not given), the Potency was inactive: > 76.9 µM. As to `Cc1cnc(Nc2nc3ccccc3o2)nc1C(=O)Nc1cccc(C(F)(F)F)c1`, the Potency was inactive: > 76.9 µM.

In the case of `O=C(CCc1ccccc1)n1nc(-c2ccccc2)nc1NCc1ccco1`, the Potency was inactive: > 76.9 µM.

For the compound `COc1cc(OC)c(OC)cc1CNCCNC(=O)c1nonc1N`, the Potency is inactive: > 76.9 µM. With `Nn1c(-c2ccco2)n[nH]c1=S`, the Potency is inactive: > 76.9 µM. As to `CCC(=O)Nc1nonc1-c1nc2ccccc2n1N(C(=O)CC)C(=O)CC`, the Potency is inactive: > 76.9 µM. Turning to `O=C(CCCSc1nc(-c2ccco2)cc(C(F)(F)F)n1)Nc1ccc2c(c1)OCO2`, the Potency was inactive: > 76.9 µM. With `O=C(N1CCCCCC1)N1CCN(C(=O)N2CCCCC2)CC1` the figure was inactive: > 76.9 µM; with `O=C(Nc1ccc(CN2CCOCC2)cc1)c1cccs1`, inactive: > 76.9 µM. With `COCCOC(=O)C(C#N)c1nc2ccccc2nc1N1CCN(Cc2ccccc2)CC1` (stereo not given) the figure was inactive: > 76.9 µM; with `CCOC(=O)c1ccc(N2C(=O)c3n[nH]c(C)c3C2c2ccc(OC)cc2)cc1` (stereo not given), inactive: > 76.9 µM. As for `Cc1c(C(=O)O)oc2ccc(S(=O)(=O)NCc3ccccc3)cc12`, the Potency is inactive: > 76.9 µM. With `CCOC(=O)c1c2n(c3ccc(O)cc13)CCCCC2` the figure was inactive: > 76.9 µM.

Regarding `CCOC(=O)CN(C(=O)CN1CCOCC1)c1ccc(Br)cc1`, the Potency was inactive: > 76.9 µM. With `O=C(c1ccccc1)N1CCN(CC#CC2(O)CCCCC2)CC1` the figure was inactive: > 76.9 µM. In the case of `O=S(=O)(c1ccccc1)c1nc(-c2ccco2)oc1NCCCN1CCOCC1`, the Potency was inactive: > 76.9 µM. Consider `CCC(=O)c1ccc(N2CCN(C(=O)Cc3ccccc3)CC2)c(F)c1`, for which the Potency is inactive: > 76.9 µM. `CSc1ccc(S(=O)(=O)NCCOc2ccccc2C)cc1`: the Potency was inactive: > 76.9 µM. With `CCc1ccc(OCc2nc(-c3ccccn3)no2)c(Br)c1` the figure was inactive: > 76.9 µM; with `O=C(CSc1nnnn1-c1ccccc1)N1CCN(C(=O)c2ccco2)CC1`, inactive: > 76.9 µM. Take `N#Cc1cc2c(nc1SCC(=O)Nc1sc3c(c1C#N)CCC3)CCCCC2`: the Potency was inactive: > 76.9 µM. The figure for `c1ccc(OCCSc2nnnn2-c2ccccc2)cc1` is inactive: > 76.9 µM; for `Cc1nc2nc(C)c(CCC(=O)NCCCN3CCN(c4cccc(Cl)c4)CC3)c(C)n2n1` it is inactive: > 76.9 µM. The figure for `Cc1ccc(-c2nnc(N3CCN(C(=O)CN4C(=O)c5ccccc5C4=O)CC3)c3ccccc23)cc1` is inactive: > 76.9 µM.

Turning to `COc1ccccc1-n1c(SCC(=O)NC(C)(C)C)nnc1-c1ccco1`, the Potency is inactive: > 76.9 µM. With `Cc1cc(C)n(-c2nc(NCCO)c3c4c(sc3n2)CCCC4)n1` the figure was inactive: > 76.9 µM.

For `CCN=C1SC(CC(=O)Nc2sc3c(c2C#N)CCCC3)C(=O)N1CC` (stereo not given), the Potency was inactive: > 76.9 µM. For `Cc1nc2cc(NC(=O)N3CCC(c4ccccc4)C3)ccc2n1C` (stereo not given), the Potency result was “inactive”. Turning to `O=C(CCN1C(=O)c2ccccc2C1=O)Nc1sc2c(c1C(=O)NCc1ccco1)CCCC2`, the Potency is inactive: > 76.9 µM. Consider `Cc1nc2ccc3nc(NC(=O)c4ccc5c(c4)OCCO5)sc3c2s1`, for which the Potency was inactive: > 76.9 µM. `CSc1nccn1CC(=O)Nc1ccc(F)cc1`: the Potency is inactive: > 76.9 µM.

Consider `CC1CN(Cc2nc3c(c(=O)n(C)c(=O)n3C)n2CCc2ccccc2)CC(C)O1` (stereo not given), for which the Potency is inactive: > 76.9 µM. As for `CCCCn1c(-c2ccsc2)nc2c1c(=O)[nH]c(=O)n2CCC`, the Potency was inactive: > 76.9 µM.

Turning to `CC[n+]1ccc(C)c2cc(S(=O)C(F)(F)F)ccc21` (stereo not given), the Potency is inactive: > 76.9 µM. On to `CCn1c(CC(=O)Nc2ccccc2)nnc1SCC(=O)Nc1ccccc1C(=O)OC`, for which the Potency was inactive: > 76.9 µM.

On to `CCCNC(=O)C1CN(S(=O)(=O)c2ccccc2)CCN1S(=O)(=O)c1ccccc1` (stereo not given), for which the Potency is inactive: > 76.9 µM. With `c1ccc2c(c1)CCN(Cc1nnnn1Cc1ccc3c(c1)OCO3)C2` the figure was inactive: > 76.9 µM. The figure for `CCc1ccc(NC(=O)c2noc3c2CCCCC3)cc1` is inactive: > 76.9 µM. With `Cc1ccc(NC(=O)c2cnccn2)c(OC(F)F)c1` the figure was inactive: > 76.9 µM. Consider `CC1(C)OC(=O)C(=CNc2ccc(F)cc2)C(=O)O1`, for which the Potency is inactive: > 76.9 µM. In the case of `COCCN(C(=O)c1ccccc1)c1nnc(-c2cccnc2)s1`, the Potency is inactive: > 76.9 µM.

With `CC(=O)CCc1c(C)c2cc(C)ccc2[nH]c1=O`, the Potency was inactive: > 76.9 µM. The figure for `O=C(NCc1ccc2c(c1)OCO2)c1ccc2c(c1)C(=O)N(CC1CCCO1)C2=O` (stereo not given) is inactive: > 76.9 µM. The figure for `CN1C(=S)SC(C)(NO)C1(C)C` (stereo not given) is inactive: > 76.9 µM; for `COc1ccc(-c2noc(COc3ccc4c(c3)OCO4)n2)cc1` it is inactive: > 76.9 µM; for `N#Cc1ccccc1NC(=O)CSc1nnc(-c2ccccc2)n1-c1ccccc1` it is inactive: > 76.9 µM. The figure for `COc1ccc(-c2cc(C(=O)N3CC4(C)CC3CC(C)(C)C4)no2)cc1OC` (stereo not given) is inactive: > 76.9 µM; for `Cc1c(C(N)=O)sc2nc(-c3ccccc3)cn12` it is inactive: > 76.9 µM. For `COc1cc(S(=O)(=O)N2CCOCC2)ccc1NC(=O)CSc1nnc(N)s1`, the Potency was inactive: > 76.9 µM.

For the compound `CCOc1ccccc1C(=O)N1CCN=C1SC`, the Potency was inactive: > 76.9 µM. With `CCc1nn2c(N3CCOCC3)cc(C)nc2c1-c1ccc(F)cc1`, the Potency was inactive: > 76.9 µM. For the compound `COC(=O)NC1CCS(=O)(=O)C1` (stereo not given), the Potency was inactive: > 76.9 µM.

For the compound `O=C(NCc1ccco1)C1(S(=O)(=O)c2ccc(Cl)cc2)CC1`, the Potency is inactive: > 76.9 µM.

On to `COCCN(CCOC)C(=O)CCn1c(=O)oc2ccccc21`, for which the Potency was inactive: > 76.9 µM.

`CCn1c(N)c(C(=O)NCCCOC)sc1=S`: the Potency is inactive: > 76.9 µM. The figure for `CCn1c(SC)nnc1-c1nnc(SC)n1CC` is inactive: > 76.9 µM. The figure for `COc1ccc(N2C(=O)CC(N3CCN(c4ccc(S(=O)(=O)N5CCCC5)cc4)CC3)C2=O)cc1` (stereo not given) is inactive: > 76.9 µM; for `O=S(=O)(c1cccs1)N1CCC(Cc2ccccc2)CC1` it is inactive: > 76.9 µM; for `CCN(CCCNC(=O)C1CCN(S(=O)(=O)c2cnc[nH]2)CC1)c1cccc(C)c1` it is inactive: > 76.9 µM. With `O=C(COC(=O)C1CC(=O)N(Cc2ccccc2)C1)Nc1ccc2c(c1)OCO2` (stereo not given) the figure was inactive: > 76.9 µM.

Take `CCCC(c1nnnn1CCOC)N1CCN(C(=O)c2ccco2)CC1` (stereo not given): the Potency is inactive: > 76.9 µM. The figure for `O=C(CCNc1ccc(Cl)c(C(F)(F)F)c1)c1ccco1` is inactive: > 76.9 µM; for `Cc1ccccc1N(Cc1nnc2n1CCCCC2)C(=O)Nc1ccccc1` it is inactive: > 76.9 µM.

In the case of `CC(=O)CCc1ccc2oc(C(=O)O)c(C)c2c1`, the Potency was inactive: > 76.9 µM. The figure for `CC(=O)NC1CC(C)(C)N(OC(C)=O)C(C)(C)C1` is inactive: > 76.9 µM; for `CCOC(=O)N1CCC(NS(=O)(=O)c2ccc3c(c2)C(C)(C)C(=O)N3C)CC1` it is inactive: > 76.9 µM; for `CCC(=O)Oc1ccc(C2N(C(=O)CC)CCN2S(=O)(=O)c2ccc(C)cc2)cc1OC` (stereo not given) it is inactive: > 76.9 µM. Regarding `CCCCCCn1c(CN2CCC(C)CC2)nc2c1c(=O)n(C)c(=O)n2C`, the Potency is inactive: > 76.9 µM. The figure for `Cc1noc(C)c1S(=O)(=O)N1CCC(C(=O)N2CCN(c3ccccc3Cl)CC2)CC1` is inactive: > 76.9 µM. On to `CCOC(=O)CNC(=O)Cn1cnc2c(nnn2-c2cccc(Cl)c2)c1=O`, for which the Potency is inactive: > 76.9 µM. With `Cc1ccc(-c2noc(C3CCN(S(=O)(=O)c4ccc5c(c4)OCCO5)CC3)n2)o1` the figure was inactive: > 76.9 µM; with `COc1ccccc1NC(=O)N1CCN(c2ncccn2)CC1`, inactive: > 76.9 µM; with `Cc1cc(=O)[nH]c(-n2nc(C)cc2C)n1`, inactive: > 76.9 µM. With `Cc1nnc2ccc(Oc3ccc(-c4ccccc4)cc3)nn12` the figure was inactive: > 76.9 µM; with `COCCn1c(SCC(=O)N2CCC(C)CC2)nc2ccccc2c1=O`, inactive: > 76.9 µM. The figure for `COc1ccc(N2CCN(c3nc4c(c(=O)n(C)c(=O)n4C)n3Cc3ccccc3)CC2)cc1` is inactive: > 76.9 µM. Turning to `O=C(CCCN1C(=O)CCC1=O)Nc1ccc2c(c1)OCCO2`, the Potency is inactive: > 76.9 µM. For `CCC(=O)N1CCc2cc(S(=O)(=O)CCC(=O)N3CCc4ccccc4C3)ccc21`, the Potency is inactive: > 76.9 µM. With `CCC(C)Cn1c(S(=O)(=O)O)nc2ccccc21` (stereo not given) the figure was inactive: > 76.9 µM; with `CCCCn1c(SCC(=O)Nc2nnc(CC)s2)nc2c1c(=O)n(C)c(=O)n2C`, inactive: > 76.9 µM; with `COc1ccc(-c2cnc(N)nc2-c2ccc(OC)cc2O)cc1`, inactive: > 76.9 µM.

Take `CC(C)OCCCN1C(=O)c2[nH]nc(-c3ccccc3O)c2C1c1cccc(Cl)c1` (stereo not given): the Potency is inactive: > 76.9 µM. With `COc1cc(NC(=O)c2cccs2)ccc1NC(=O)c1ccco1` the figure was inactive: > 76.9 µM; with `CCOc1ccccc1-c1nc(C(N)=O)c2[nH]c(=O)n(-c3ccccc3)c2n1`, inactive: > 76.9 µM; with `CCn1c(SCC(=O)Nc2ccc3c(c2)OCCO3)nnc1-c1ccco1`, inactive: > 76.9 µM. For the compound `N#Cc1c(N)nc2c(c1-c1ccncc1)CCCCCC2`, the Potency is inactive: > 76.9 µM. The figure for `O=C1CCC(c2ccccc2)N1C(=O)c1cccnc1` (stereo not given) is inactive: > 76.9 µM; for `COc1ccc(-c2cc(C(F)(F)F)nc(N3CCN(Cc4ccccc4)CC3)n2)cc1OC` it is inactive: > 76.9 µM. The figure for `CC(=O)Nc1ccc(S(=O)(=O)Nc2cc(C)c(-n3nc4ccccc4n3)cc2O)cc1` is inactive: > 76.9 µM. The figure for `Cc1nc2ccccc2n1S(=O)(=O)c1ccc(S(=O)(=O)N2CCCCCC2)cc1` is inactive: > 76.9 µM.
